# According to PubChem BioAssay AID1508624 (National Center for Advancing Translational Sciences (NCATS), 2021):
# Screen size: about 48,000 compounds; about 120 (0.25%) were called active. Roughly 4% stayed inconclusive and do not appear here. The call rests on the fitted dose curve; in most records, active means well fitted activation curve with a large enough effect; inconclusive means small, poorly fitted or top-dose-only effect, or another doubt; inactive means no such curve, though single readings can be large or run the other way. The list shows a part of the results.
# Test: Primary qHTS for Identification of Small Molecule Activators of Huntingtin-Antisense Promoter Activity; further: nearly all actives have a fitted effect of over 55% in size
# Settings: HEK293 HTT-AS promoter firefly luciferase reporter, 24 h; series mostly up to 57.5 µM; activity change, positive = activation: at the top concentration
# Summary of the method: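 HEK293 cells carrying firefly luciferase reporters were seeded at 2,500 per well in Opti-MEM and cultured for 24 h. They were then treated with compounds at up to 57.5 uM final for 24 h at 37 degrees C before Dual-Glo luminescence readout.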
# Potency means the concentration at half of the fitted maximal effect.
SMILES,"activity change, positive = activation",Potency
Cc1nnc(SCC(=O)NCc2ccccc2F)c2nn(-c3ccc(Cl)cc3)c(C)c12,inactive: -47.6%,
COCCc1nn2c(=O)cc(COC(=O)c3ccc(C(C)(C)C)cc3)nc2s1,inactive: -27.3%,
COc1ccc(CNc2ncnc3c2c(-c2ccccc2)cn3-c2ccccc2)cc1,inactive: -19.9%,
CCN(CC)S(=O)(=O)c1ccc(C(=O)N=c2sc3cccc(OC)c3n2C)cc1,inactive: -12.7%,
Cc1ccc(S(=O)(=O)c2nc(-c3ccc(Cl)cc3)oc2N2CCCCCC2)cc1,inactive: -27%,
Cc1c(-c2cccc(NC(=O)C(C)(C)C)c2)nc2ncccn12,inactive: -7.11%,
Cc1ccc(-c2nc(SCc3ccc(Br)cc3)n3[nH]c(=O)cc3n2)cc1,inactive: -62.5%,
CN1CC(=O)N(CC(=O)Nc2ccc(Cl)c(C(F)(F)F)c2)c2ccccc2C1=O,inactive: -26.1%,
CCOC(=O)c1ccccc1NC(=O)Cn1c(=O)n(Cc2ccccc2)c(=O)c2c(C)c(C)sc21,inactive: 0.881%,
O=C1C(c2[nH]c3ccccc3c2O)=Nc2ccccc21,inactive: 3.15%,
CN1CCC(Nc2ncc3ncnc(Nc4ccc(F)c(Cl)c4)c3n2)CC1,inactive: -10.8%,
CCN(c1ccc(Cl)cc1)S(=O)(=O)c1nnc(NC(=O)C(C)C)s1,inactive: -11.1%,
CCC(=O)Oc1ccc(-c2nc3ccccc3c(=O)o2)cc1,inactive: -5.43%,
Cc1ccc(-n2ncc(C(=O)N3CCN(Cc4ccccc4)CC3)c2C2CCN(C(=O)OC(C)(C)C)CC2)c(C)c1,inactive: -1.77%,
CC(C)(C)OC(=O)N1CCC(c2c(C(=O)NCc3ccco3)cnn2-c2ccc(F)cc2)CC1,inactive: -9.32%,
Cc1ccc(C)c(S(=O)(=O)c2nnn3c2nc(NCc2ccc4c(c2)OCO4)c2sccc23)c1,inactive: -5.67%,
CN(C)c1ccc(NC(=O)Cn2c(SCc3ccccc3F)nc3cccnc32)cc1,inactive: 6.37%,
COc1ccc(-c2nnc(SCC(=O)Nc3ccc(F)cc3)s2)cc1,inactive: -86.7%,
CN(C)c1ccc(C(CNS(=O)(=O)c2ccc(Br)cc2)N2CCOCC2)cc1 (stereo not given),inactive: -20.6%,
O=c1c2sc3ccccc3c2n(Cc2ccccc2F)c(=O)n1CCc1ccccc1,inactive: 22.6%,
Oc1ccc(CCNCCCCCCNCCc2ccccc2)cc1O,inactive: -7.06%,
CC(=O)c1ccc(NC(=O)NCCc2c[nH]c3ccccc23)cc1,inactive: 5.82%,
CCCCCn1c(=O)[nH]c2cc(C(=O)Nc3ccc(F)cc3)ccc2c1=O,inactive: -0.38%,
Cc1cccc(-c2nc3scc(CCNC(=O)c4ccccc4Cl)n3n2)c1,inactive: -11.1%,

SMILES,"activity change, positive = activation",Potency
CCOC(=O)C1CCN(S(=O)(=O)c2cc(-c3cc(C)no3)ccc2C)CC1,inactive: -20.5%,
Cc1cccc(NC(=O)CSc2nnc(CNC(=O)c3c(F)cccc3Cl)o2)c1C,inactive: -6.39%,
CC(C)c1nn2c(=O)cc(COC(=O)c3ccc(NC(=O)CCc4ccccc4)cc3)nc2s1,inactive: 28.8%,
CC1CCN(CCNC(=O)c2ccc(Cn3c(SCc4ccccc4)nc4cccnc43)cc2)CC1,inactive: 4.92%,
COc1ccccc1CNC(=O)c1cccc(Nc2nc3ccccc3n3nnnc23)c1,inactive: -0.998%,
Cc1ccc2nc(N3CCN(c4cccc(C)c4C)CC3)c3nnnn3c2c1,inactive: -4.45%,
CCC1CN(C(=O)N2CCC(C(=O)NCc3cccs3)CC2)c2cc(C)ccc2O1 (stereo not given),inactive: -23.5%,
CCc1cccc(NC(=O)CSc2ncc3c(n2)-c2ccccc2N(Cc2ccccc2C)S3(=O)=O)c1,inactive: 15.7%,
O=C(COc1ccc(F)cc1)Nc1ccc2nc(SCc3ccccc3)sc2c1,inactive: 5.26%,
CCOc1ccc(-c2cc(C(=O)NCc3ccccc3)c3c(-c4ccc(CC)cc4)[nH]nc3n2)cc1,inactive: -1.2%,
O=C(CC1(O)C(=O)N(CCc2ccccc2)c2ccc(Br)cc21)c1ccccc1O (stereo not given),inactive: -25.9%,
Cc1ccccc1Nc1c2c(nc3nncn13)CCC2,inactive: 9.08%,
COc1ccc(NC(=O)Cc2csc(C)n2)cc1,inactive: 10.7%,
CC(C)(C)C(=O)Nc1c(C(=O)N2CCN(c3ccc(F)cc3)CC2)oc2ccccc12,inactive: -23.9%,
CCc1ccc(CNC(=O)CCN2C(=O)COc3ccccc32)cc1,inactive: -10%,
Cc1cc(C)cc(NC(=O)Cn2nnc(C(=O)Nc3cc(C)cc(C)c3)c2N)c1,inactive: -18.3%,
[O-][n+]1cccc(CO)c1,inactive: -6.69%,
CCOC(=O)c1cc(-c2ccccc2)n(CCCC(=O)Nc2cccc(Cl)c2C)c1C,inactive: -22.1%,
CSc1ccc(CCNC(=O)C(C)n2c(C)c3cnn(-c4ccccc4)c(=O)c3c2C)cc1 (stereo not given),inactive: -22.5%,
COc1cc(NC(=O)Cn2c(C)cc3ccccc3c2=O)cc(OC)c1OC,inactive: -4.86%,
COC(=O)c1cc2oc(C)cc2n1CC(=O)Nc1ccc(C)cc1C,inactive: -4.83%,
O=C(Cn1c(=O)n(Cc2ccccc2)c(=O)c2oc3ccccc3c21)Nc1ccc(Cl)cc1,inactive: -4.22%,
Cc1ccc(/C=C/c2onc(C)c2S(=O)(=O)N2CCC(C(=O)N3CCOc4ccccc43)CC2)cc1,inactive: -12.3%,
CC(=O)Nc1cc(C(=O)NCc2ccc(F)cc2Cl)ccc1Sc1ccc(Cl)cc1,inactive: -39.4%,

SMILES,"activity change, positive = activation",Potency
CC(C)c1ccc(NC(=O)c2ccc(NC(=O)CCS(=O)(=O)c3cccs3)cc2)cc1,inactive: -22.2%,
Cc1ccc(CCNc2nc3c(S(=O)(=O)c4ccc(C)cc4)nnn3c3ccsc23)cc1,inactive: -9.87%,
COc1cc(CNC(=O)c2cc3n(n2)CCCN(Cc2ccc(C)cc2)C3=O)cc(OC)c1OC,inactive: -15.6%,
Cc1ccc(-c2c3c(=O)n(C)c(=O)n(C)c3c3c(C(F)(F)F)nc4ccccc4n23)cc1,"inactive: 12.9% [at 11.5 µM, percent change from vehicle, -100% = no light]",
Cc1c(NC(=O)c2sc3c([N+](=O)[O-])cccc3c2Cl)cccc1-c1nc2ccccc2o1,inactive: 16.9%,
CCS(=O)(=O)N1CC(=O)N(c2cccc(C)c2C)C(C)(C(=O)NC2CCCCC2)C1 (stereo not given),inactive: -0.343%,
CCOC(=O)c1[nH]c(C)c(CCC(=O)Nc2ccc(N(CC)CC)cc2C)c1C,inactive: -10.6%,
CCC(=C(c1ccccc1)c1ccc(OCCN(C)C)cc1)c1ccccc1,inactive: -26.2%,
CCn1cc(S(=O)(=O)c2cc(C)cc(C)c2)c(=O)c2cc(F)c(N3CCC(C)CC3)cc21,inactive: 2.74%,
Cc1ccc2nc(-c3ccc(C)c(NC(=O)CSc4ccc(Cl)cc4)c3)oc2c1,,active: 6.31 µM
CCOc1ccc(N(C(=O)c2ccc(C)cc2)S(=O)(=O)c2ccc3c(c2)n(C)c(=O)n3C)cc1,inactive: -14.4%,
Cc1ccc2cccc(NC(=O)c3ccc(-c4cc(Cl)ccc4Cl)o3)c2n1,inactive: -5.74%,
O=C(NCc1ccc(Cl)cc1)c1cc2ccccc2o1,inactive: -11.6%,
Cc1ccc(C)n1-c1nnc(N2CCCC(C(=O)NCc3ccc(F)cc3)C2)s1 (stereo not given),inactive: -8.11%,
Cc1ccc(Cl)cc1N1CCN(C(=O)Cn2cnc3nc4c(cc3c2=O)CCCC4)CC1,inactive: -5.98%,
COc1ccc(OC)c(NC(=O)c2ccc3c(c2)c(C)c(C)n3Cc2ccc(F)cc2)c1,inactive: -24.6%,
CCN(CC)C(=O)Cn1c(=O)n(CCCCCC(=O)NCc2ccccc2Cl)c(=O)c2sccc21,inactive: -10.5%,
O=C(NCc1cccc(Br)c1)c1cccn1-c1nnc(N2CCCCC2)s1,inactive: -25.6%,
Oc1ccc(Cl)cc1Nc1nc2ccccc2n2cnnc12,inactive: -12.1%,
CCOC(=O)c1ccc(NC(=O)Cc2ccc(-n3c(CC)nc4cccnc43)cc2)cc1,inactive: -7.63%,
COc1ccccc1N(Cc1cc2cccc(C)c2[nH]c1=O)C(=O)c1cccc(Cl)c1,inactive: -42.5%,
NC(=O)c1cc(S(=O)(=O)N2CCCCC2)cs1,inactive: -16.1%,
CCNC(=O)CC1C(=O)N(c2ccc(C)cc2)C(=O)N1Cc1ccc(C)cc1 (stereo not given),inactive: -10.1%,
O=C(CCS(=O)(=O)c1ccc2c(c1)NC(=O)CO2)Nc1cccc(C(F)(F)F)c1,inactive: -9.18%,

SMILES,"activity change, positive = activation",Potency
COc1ccc(NC(=O)Cn2nnc(C(=O)NCc3ccccc3Cl)c2N)cc1Cl,inactive: -20.8%,
CCC(=O)N1CCc2cc(Br)cc(S(=O)(=O)CCC(=O)NCCc3ccccc3Cl)c21,inactive: 10.9%,
CN1CCN(C(c2cccc(Br)c2)c2sc3nc(-c4ccco4)nn3c2O)CC1 (stereo not given),inactive: -22.2%,
Cc1ccnc(NS(=O)(=O)c2ccc(N)cc2)n1,inactive: -1.09%,
CCOc1ccc(-c2nonc2NC(=O)c2ccc(C)cc2)cc1OCC,inactive: 3.49%,
CCOc1ccc(-c2nc(SCC(=O)Nc3ccc4c(c3)OCCO4)c(-c3ccc(F)cc3)[nH]2)cc1,inactive: -13.9%,
CCC(=O)OCCCNc1nc(-c2ccc(Cl)cc2)nc2ccccc12,inactive: -7.98%,
CC(=O)N1CCCc2cc(S(=O)(=O)N3CCN(c4ccc(F)cc4)CC3)ccc21,inactive: -36.3%,
CN[C@H]1CCc2cc(OC)c(OC)c(OC)c2-c2ccc(OC)c(=O)cc21,inactive: -30.9%,
COc1cccc(OC)c1C(=O)Nc1cccc(-c2nc3cc(C)cc(C)c3o2)c1,inactive: -4.63%,
COc1ccc(NC(=O)c2noc3c2CSc2ccccc2-3)cc1Cl,inactive: 7.34%,
O=C(Cn1nc(Cc2cccnc2)c2ccccc2c1=O)Nc1cccc(C(F)(F)F)c1,inactive: -38.5%,
Cc1ccc(NC(=O)Cn2c(C)cc(C)c(C#N)c2=O)cc1F,inactive: 9.34%,
Cc1cc(C)c(/C=C/c2onc(C)c2S(=O)(=O)N2CCC(C(=O)N3CCN(c4ccc(Cl)cc4)CC3)CC2)c(C)c1,inactive: 15%,
Cc1ccc(C(=O)Nc2nc3n(n2)C(c2ccccc2)C=C(c2ccccc2)N3)cc1 (stereo not given),inactive: -10.5%,
NC(=O)OCC(COC(N)=O)c1ccccc1,inactive,
CC1CCc2onc(C(=O)N3CCN(c4cccc(C(F)(F)F)c4)CC3)c2C1 (stereo not given),inactive: -28.4%,
COc1ccc(-c2nc3ccccc3s2)cc1NC(=O)c1cc2ccccc2o1,"inactive: 10.1% [at 11.5 µM, percent change from vehicle, -100% = no light]",
Cc1ccc(NC(=O)CCNS(=O)(=O)c2cccc3nsnc23)cc1,inactive: -7.14%,
CN(CC(=O)Nc1ccc(F)cc1F)S(=O)(=O)c1ccc(C(=O)N2CCOCC2)s1,inactive: -9.6%,
CCCCc1ccc(NC(=O)COc2cccc3c(=O)n(C)ccc23)cc1,inactive: -42.4%,
CCOC(=O)c1c(C)c(-c2ccccc2)n(CC(=O)NCCc2ccc(C)cc2)c1C,inactive: -5.1%,
Cc1ccc2nc(CSc3nnc(NC(=O)COc4ccccc4)s3)cc(=O)n2c1,inactive: 0.0174%,
